Measurements published in PubChem BioAssay AID686979 (National Center for Advancing Translational Sciences (NCATS), 2013).
Hit rate of the full screen: of about 420,000 compounds, about 50,000 (12%) were called active. The inconclusive results got no clear call from the source; some entries with a clear call stand among them for comparison. Calls come from the whole dose curve; as a rule, active = well fitted inhibition curve with a large enough effect; inconclusive = small, poorly fitted or top-dose-only effect; inactive = flat fitted curve, though single readings scatter. Potencies of inconclusive entries are left out as doubtful fits.

Assay: qHTS for Inhibitors of human tyrosyl-DNA phosphodiesterase 1 (TDP1): qHTS in cells in presence of CPT; note: nearly all actives have a fitted effect of over 55% in size
Details: chicken DT40 Tdp1-/-;hTDP1 cells + 20 nM CPT, ATP luminescence, 48 h; activity change, negative = growth inhibition: at 46.2 µM (top of the series) unless noted
How it was run: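 Chicken DT40 Tdp1-/- cells complemented with human TDP1, 400 cells/well, exposed to compounds plus 20 nM camptothecin for at least 48 h at 37 C; viability read as ATP content by CellTiter-Glo luminescence.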
% is set by controls: 0 for no effect and ±100 for the full control effect; potency is the fitted concentration of half-maximal effect; tags give direction and shape of the fitted curve.

Compound	activity change, negative = growth inhibition	Potency
Cc1cccc(NC(=S)N/N=C/c2ccc(Cl)c([N+](=O)[O-])c2)c1	inconclusive: -31.9% [inhibitor]	–
COc1cc2oc3ccc(C#Cc4ccc(N)cc4)cc3c(=O)c2cc1OC	–	inconclusive [inhibitor, partial curve]
Cn1c(=O)[nH]c(=O)c2c1[nH]c(=S)n2Cc1ccccc1	–	inactive
CCC(C)(C)NC(=O)C(c1cccn1C)N(C(=O)Cn1nnc2ccccc21)c1ccc(OC)cc1OC (centres undefined)	–	inconclusive [inhibitor, single point]
COc1ccc(NC(=S)N2CCCC(CO)C2)c(OC)c1 (centres undefined)	–	inactive
CCCCOc1ccc(/C=C/C(=O)Nc2ccc(C(N)=O)cc2)cc1	–	inactive
CCc1c(C)nc2ncnn2c1NCCc1ccc(Cl)cc1	–	active: 16.4 µM
Cc1coc2c1c(C)cc1oc(=O)c(CC(=O)NCC(=O)N[C@H](C(=O)O)C(C)C)c(C)c12	–	inactive
CC(=NCCc1ccccc1)C1=C(O)CSC1=O	–	inconclusive [inhibitor, single point]
C[C@H]1CN([C@@H](C)CO)C(=O)c2cc(Br)cnc2O[C@@H]1CN(C)C(=O)CN(C)C	–	inactive
COCCCNCCC(CCC(C)C)c1ccc2c(c1)OCO2 (centres undefined)	–	inconclusive [inhibitor, single point]
CN(C(=O)COC(=O)c1cc(NS(=O)(=O)c2cc([N+](=O)[O-])ccc2Cl)ccc1O)C1CCCCC1	–	inactive
COc1ccc(-c2cc(=Nc3c(C)n(C)n(-c4ccccc4)c3=O)c3ccccc3o2)cc1	–	inconclusive [inhibitor, single point]
CCN(CC)C(=O)[C@H]1C[C@H](CC(=O)NCC23CC4CC(CC(C4)C2)C3)C(=O)N2CCc3c([nH]c4cc(CCC(=O)N(C)C)ccc34)[C@]12C	–	active: 20.6 µM
CCC(C)(C)NC(=O)CN(Cc1cccs1)C(=O)C(=O)Nc1ccc2c(c1)OCCO2	inconclusive: -30.2% [inhibitor]	–
COC(=O)c1nc2n(n1)C(c1cc(OC)ccc1OC)C(C(=O)Nc1ccc(C)cc1C)=C(C)N2 (centres undefined)	–	inactive
O=C(O)C(C(=O)/C=C/c1ccco1)=C1SCCS1	–	inactive
Cc1ccc(CN(C(=O)COc2c(C)cccc2C)C2CCS(=O)(=O)C2)o1 (centres undefined)	–	inconclusive [inhibitor, single point]
CCn1c(/C=C/Nc2ccccc2)[n+](CC)c2ccc(C(=O)OCC(F)(F)F)cc21	–	active: 25.9 µM
CCCS/C(N)=N/N=C/c1ccccc1O	–	inconclusive [inhibitor, single point]
COc1ccc(Oc2ncc3nc(-c4ccc(F)cc4)c(=O)n(C)c3n2)cc1	inconclusive: -20.6% [inhibitor]	–
CCCN=C(C)c1c(-c2ccccc2)[nH]n(-c2nc3ccccc3s2)c1=O	–	inconclusive [inhibitor, single point]
COc1ccc(/C=C\C(=O)NC2CC(=O)N(c3ccccc3)C2)cc1OC (centres undefined)	–	inactive

Compound	activity change, negative = growth inhibition	Potency
CN1CCN(C(=O)C2CCCN(S(=O)(=O)c3ccc(Br)cc3)C2)CC1 (centres undefined)	–	inconclusive [inhibitor, single point]
Cc1ccc(NC(=O)C(Cc2c[nH]c3ccccc23)NC(=O)OCC(C)C)cc1 (centres undefined)	–	active: 18.4 µM
Clc1ccc(C2[C@H]3CN(Cc4cccnc4)[C@H](c4ccccc4)C34CC2(c2cccnc2)C4)cn1 (some centres undefined)	–	inconclusive [inhibitor, single point]
COc1cc(OC)cc(C(=O)Nc2ccc(N(C)C)c3ccccc23)c1	inconclusive: -12.1% [inhibitor]	–
CC(C)(C)C(=O)NCCc1csc2nc(-c3ccc(F)cc3)nn12	–	inconclusive [inhibitor, single point]
C/C(=C\C(=O)c1ccccc1)NNc1nc2ccccc2s1	–	inconclusive [inhibitor, single point]
Cc1ccc(Cl)cc1N1CCN(CCNC(=O)Nc2ccccc2Cl)CC1	–	active: 16.4 µM
CCc1cc(C(=O)OC)c(NC(=O)CN2CCN(C(=O)C3CCCO3)CC2)s1 (centres undefined)	–	inactive
CC(=O)Nc1cccc(C(=O)NNC(=O)c2ccc(NS(=O)(=O)c3cccs3)cc2)c1	–	inconclusive [inhibitor, partial curve, poor fit]
CCN(CCCNS(=O)(=O)c1ccc2c(c1)CCN2C(C)=O)c1cccc(C)c1	–	inconclusive [inhibitor, single point]
COC(=O)[C@]12CCCCC=C1N(CCC1=CCCCC1)C(=O)[C@H](CC(=O)NCc1ccc(C)o1)C2	–	inconclusive [inhibitor, single point]
Cc1cc2c(=O)n(C)c(SCC(=O)Nc3ccccc3)nc2s1	–	inactive
Cc1ccc(Cl)cc1NC(=O)C(=O)NCC(c1cccnc1)N1CCc2ccccc21 (centres undefined)	–	active: 13 µM
C[C@H](CO)N1C[C@H](C)[C@@H](CN(C)C(=O)c2cnccn2)Oc2cc(C#CCC3CCCC3)ccc2S1(=O)=O	–	inconclusive [inhibitor, single point]
CN(Cc1cccc(F)c1)C(=O)Cc1ccc(S(=O)(=O)N2CCOCC2)s1	–	inactive
Cc1ccc(NC(=O)CCS(=O)(=O)c2ccc(Br)cc2)nc1	–	inconclusive [inhibitor, single point]
COc1ccc(NC(=O)CCS(=O)(=O)c2ccc(OC)cc2)cc1	–	inactive
Cn1nnnc1SCC(=O)N1N=C(c2cccs2)CC1c1cccs1 (centres undefined)	–	inconclusive [inhibitor, partial curve]
CCc1ccc(-n2c(=O)c3c4c(sc3n(CC(=O)c3ccc(Cl)cc3)c2=O)CCC4)cc1	–	active: 2.59 µM
C=CCNc1nc2c(c(=O)n(C)c(=O)n2C)n1CC(=C)C	–	inconclusive [inhibitor, single point]
COc1ccc(-c2csc(NC(=O)COc3ccc(N(C)S(=O)(=O)c4ccc(C)cc4)cc3)n2)cc1	–	active: 5.17 µM
CN(C(=O)c1ccc(NC(=O)Cc2ccc(NC(=O)C3CCN(C(=O)C4CCCC4)CC3)cc2)cc1)C1CCCC1	–	inconclusive [inhibitor, partial curve, poor fit]
CCC(c1nnnn1Cc1ccco1)N(CCc1ccccc1)Cc1cc2cc(C)ccc2[nH]c1=O (centres undefined)	–	active: 20.6 µM

Compound	activity change, negative = growth inhibition	Potency
CSc1ccc(CN(C)CC(=O)Nc2c(F)cccc2F)cc1	–	active: 20.6 µM
O=C(Nc1ccc(Cl)cn1)C1CCCN(c2ncnc3c2nc2n3CCCCC2)C1 (centres undefined)	–	active: 20.6 µM
CCC1Sc2ccc(S(=O)(=O)CCC(=O)Nc3c(Cl)cc(OC)cc3OC)cc2NC1=O (centres undefined)	–	inconclusive [inhibitor, single point]
O=C1CN(c2ccc(Cl)cc2)C(=O)CN1NC(=S)Nc1ccc(Cl)cc1	–	inactive
COc1ccc(S(=O)(=O)NCCc2c(C)nn(C)c2Oc2ccccc2)cc1	–	inconclusive [inhibitor, single point]
O[C@@H]1CN(C2CCN(Cc3ccccc3)CC2)CC[C@H]1N1CCCCCC1	–	inconclusive [inhibitor, single point]
CCN(C(=O)CN1C(=O)S/C(=C\C=C\c2ccccc2)C1=O)C1CCS(=O)(=O)C1 (centres undefined)	–	active: 1.84 µM
Cc1nc(S/C(=C\c2ccc(OCc3ccccc3Cl)cc2)C(=O)O)n[nH]1	–	inconclusive [inhibitor, single point]
C#CCN(C[C@@H]1[C@@H](OC(=O)NC2CCCC2)[C@@H](OC(=O)NC2CCCC2)CN(C(=O)OC(C)C)N1C(=O)OC(C)C)S(=O)(=O)c1ccc(C)cc1	–	inconclusive [inhibitor, single point]
CCCOC(=O)c1ccc(Oc2cn[nH]c2-c2ccc(OCC)cc2O)cc1	–	inconclusive [inhibitor, single point]
COc1ccc(C(N)c2csc(Nc3nncc4ccccc34)n2)cc1 (centres undefined)	–	inconclusive [inhibitor, single point]
COc1cccc(/C=N/NC(N)=S)c1OCc1ccccc1Cl	–	active: 2.91 µM
COc1cccc(COC(=O)c2cc(S(=O)(=O)N3CCCCC3)ccc2N2CCOCC2)c1OC	–	inconclusive [inhibitor, single point]
C=CCSc1nc2ccccc2n1C(=O)/C=C/c1ccc(OC)c(OC)c1	–	active: 5.01 µM
C=C1NN(CC2CC2)C(=O)N1c1ccc(OCc2ccccc2)cc1	–	inconclusive [inhibitor, single point]
OC(c1ccccc1)(c1nc(-c2ccc3ccccc3c2)cs1)C(F)(F)F (centres undefined)	–	active: 20.6 µM
O=C(c1ccccc1)N1c2ncnn2C2(CCCCC2)[C@@H]2CCCC[C@@H]21	–	inconclusive [inhibitor, single point]
CCCS(=O)(=O)N1CCN(C(=O)c2ccc(-c3ccccc3)cc2)CC1	–	inconclusive [inhibitor, single point]
COc1ccccc1NC(=O)c1sc2nc3c(cc2c1N)CCCCCC3	–	inconclusive [inhibitor, single point]
COc1ccccc1-c1noc(CCCC(=O)NC2CCCC2)n1	–	inactive
C=C(C)Cn1c(CN(C)Cc2ccccc2)nc2c1c(=O)n(C)c(=O)n2C	–	active: 7.31 µM
Cc1ccc(C)c(OCC(=O)NNC(=O)CCN2CCN(c3ccccc3)CC2)c1	–	inconclusive [inhibitor, single point]
COc1ccc(N2CCN(CCCNC(=O)CC3Oc4ccc(C)cc4NC3=O)CC2)cc1 (centres undefined)	–	inconclusive [inhibitor, single point]
